Screen size: about 110,000 compounds; about 230 (0.21%) showed an effect of 50% or more. This is one part of the list.
These compounds were tested against DPAP1 (Plasmodium falciparum, UniProt Q8IIJ9) (assay: primary screen, percent inhibition; read by cleavage of a fluorogenic dipeptide substrate; higher = more effect of the substance).
Sequence of DPAP1 (Q8IIJ9 whole entry, looked up): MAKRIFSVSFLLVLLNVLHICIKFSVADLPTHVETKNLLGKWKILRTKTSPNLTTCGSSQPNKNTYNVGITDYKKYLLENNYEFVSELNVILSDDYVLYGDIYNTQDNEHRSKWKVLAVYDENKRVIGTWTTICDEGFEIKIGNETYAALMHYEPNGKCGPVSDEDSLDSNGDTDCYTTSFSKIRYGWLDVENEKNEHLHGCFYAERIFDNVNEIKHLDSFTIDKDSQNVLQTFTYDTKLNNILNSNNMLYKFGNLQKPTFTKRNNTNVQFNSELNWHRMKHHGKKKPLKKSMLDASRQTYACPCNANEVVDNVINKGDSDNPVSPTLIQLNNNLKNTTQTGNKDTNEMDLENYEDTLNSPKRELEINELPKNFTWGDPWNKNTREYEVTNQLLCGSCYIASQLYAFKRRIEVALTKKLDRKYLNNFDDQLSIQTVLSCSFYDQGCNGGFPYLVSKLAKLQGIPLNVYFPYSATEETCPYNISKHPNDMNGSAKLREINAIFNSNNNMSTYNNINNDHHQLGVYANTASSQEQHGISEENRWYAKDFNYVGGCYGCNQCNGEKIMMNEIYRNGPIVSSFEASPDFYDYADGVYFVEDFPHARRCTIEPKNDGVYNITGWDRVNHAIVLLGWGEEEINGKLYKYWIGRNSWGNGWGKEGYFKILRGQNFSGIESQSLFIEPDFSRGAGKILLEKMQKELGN
Parameters: species or system P. falciparum D10 trophozoite lysates; single well
With `Cc1nn(C(C)C(=O)N2CCC(C)CC2)c(=O)c2cc3sccc3n12` (stereo not drawn) the “% Inhibition @ 10 uM” value was -5.19%.
For `CC(C)c1ccc(N(CC(=O)Nc2ccccc2Cl)S(C)(=O)=O)cc1`, the “% Inhibition @ 10 uM” value was 0.00477%.
In the case of `Cc1ccn2c(/C=N\NC(N)=S)c(-c3ccc(Cl)cc3)cc2c1`, the “% Inhibition @ 10 uM” value is reported as 0.131%.
For `Cc1cc(C(=O)O)ccc1-n1c(C)cc(C=C2C(=O)NC(=O)NC2=O)c1C`, the “% Inhibition @ 10 uM” value was 0.146%.
With `Cc1sc(NC(=O)c2ccccc2)c(C(c2ccccn2)N2CCN(C)CC2)c1C` (stereo not drawn) the “% Inhibition @ 10 uM” value was 2.64%.
With `Cc1ccc2oc(=O)c3cc(C(=O)N4CCCCC4C)sc3c2c1` (stereo not drawn) the “% Inhibition @ 10 uM” value was 0.809%.
For `CN1CCC(NCc2cccc(F)c2)CC1`, the “% Inhibition @ 10 uM” value was 0.472%.
With `CCOc1ccc(C(=O)NCC(=O)n2nc(C)cc2C)cc1` the “% Inhibition @ 10 uM” value was 12%.
With `Cc1c2cnn(CC(=O)NC(C)c3ccccc3)c(=O)c2c(C)n1Cc1cccc(Cl)c1` (stereo not drawn) the “% Inhibition @ 10 uM” value was 2.84%.
For `Cc1nc2cc(C(=O)N3CCC4(CC3)OCCO4)ccc2n1-c1ccc(Br)cc1`, the “% Inhibition @ 10 uM” value was -2.17%.
In the case of `CCOc1cc2sc(N3CCC(C(=O)NCCCN4CCCC4)CC3)nc2cc1Br`, the “% Inhibition @ 10 uM” value is reported as 23.9%.
In the case of `O=C(O)/C=C/C(=O)NCC1CCC(C(=O)O)CC1` (stereo not drawn), the “% Inhibition @ 10 uM” value is reported as 0.962%.
In the case of `COc1ccc(C2(C)CC(C)(C)N(C(C)=O)c3ccccc32)cc1` (stereo not drawn), the “% Inhibition @ 10 uM” value is reported as -2.28%.
`O=C1CC(N2CCCCCC2)C(=O)N1c1cccc2ccccc12` (stereo not drawn) was tested, and the “% Inhibition @ 10 uM” value was 0.189%.
In the case of `CC1=Nc2ccccc2S/C1=C(/O)OC(C)C`, the “% Inhibition @ 10 uM” value is reported as -0.436%.
For `Cc1ccc(S(=O)(=O)Cc2ccc(C(=O)N3CCC4(CC3)OCCO4)o2)cc1`, the “% Inhibition @ 10 uM” value was -1.28%.
In the case of `COc1ccccc1N1CCN(C(=O)c2ccc3c(c2)OCO3)CC1`, the “% Inhibition @ 10 uM” value is reported as -5.34%.
For `CCOc1ccc2ncc(S(=O)(=O)c3ccc(Cl)cc3)c(N3CCCC3)c2c1`, the “% Inhibition @ 10 uM” value was 9.45%.
With `Cc1cc(Cl)ccc1NC(=O)CN(c1ccc(F)cc1)S(=O)(=O)c1ccc2c(c1)OCCO2` the “% Inhibition @ 10 uM” value was 1.1%.
In the case of `CCOC(=O)N1CCN(c2c(NCCC3=CCCCC3)c(=O)c2=O)CC1`, the “% Inhibition @ 10 uM” value is reported as -2.17%.
`Cc1nc2nn(-c3ccccc3)c(O)c2c(O)c1CCC(C)C` was tested, and the “% Inhibition @ 10 uM” value was 1.91%.
With `COc1cccc(C(=O)O/N=C(\N)Cc2cccc3ccccc23)c1` the “% Inhibition @ 10 uM” value was -5.08%.
In the case of `COc1ccc(OC)c(CNC(=O)CCn2nc(C)c3c(C)n(-c4ccccc4)nc3c2=O)c1`, the “% Inhibition @ 10 uM” value is reported as -0.486%.
For `Cc1cc(N2CCN(Cc3ccccc3)CC2)n2nc(C)c(-c3ccccc3)c2n1`, the “% Inhibition @ 10 uM” value was -5.58%.
With `CN(CC(=O)NC1CCN(Cc2ccccc2)CC1)c1nnc(N2CCCC2=O)s1` the “% Inhibition @ 10 uM” value was 0.544%.
With `CCOc1ccc(CCNC(=O)C2CC(C)=CCC2C(=O)O)cc1OCC` (stereo not drawn) the “% Inhibition @ 10 uM” value was 2.7%.
In the case of `COc1ccc(NC(=O)C2=C(C)NC(=O)NC2c2ccc(F)cc2)cc1` (stereo not drawn), the “% Inhibition @ 10 uM” value is reported as 6.17%.
For `CCOC(=O)c1ccc(-c2ccc(/C=C(/C#N)C(=O)NCCO)o2)cc1`, the “% Inhibition @ 10 uM” value was 20.4%.
`CC(=O)C1=C(C)N=C2C(=C(O)c3ccccc32)C1c1cccnc1` (stereo not drawn) was tested, and the “% Inhibition @ 10 uM” value was 2.68%.
In the case of `Cc1ccc(C(=O)c2sc3nc4c(cc3c2N)C(=O)CC(C)(C)C4)cc1`, the “% Inhibition @ 10 uM” value is reported as 2.38%.
For `O=C(NCc1ccco1)c1cccc(F)c1`, the “% Inhibition @ 10 uM” value was 2.6%.
With `CN(C)c1ccc(C(=O)c2ccccc2C(=O)O)cc1` the “% Inhibition @ 10 uM” value was 0.76%.
`CC(C)(C)Oc1ncc(-c2nccc(Br)n2)c(OC(C)(C)C)n1` was tested, and the “% Inhibition @ 10 uM” value was 2.27%.
With `Nc1nc2c3ccccc3nc(-c3ccccc3)n2n1` the “% Inhibition @ 10 uM” value was -2.28%.
`CCCN1CCN(C(=O)CCCn2nc(C)c3sc4ccccc4c3c2=O)CC1` was tested, and the “% Inhibition @ 10 uM” value was 1.31%.
In the case of `CCOC(=O)C1CCN(Cc2ccco2)CC1`, the “% Inhibition @ 10 uM” value is reported as -7.52%.
For `Cc1ccc(CN2c3ccsc3C(O)=C(/C=N/CCc3c[nH]c4ccccc34)S2(=O)=O)cc1`, the “% Inhibition @ 10 uM” value was 3.78%.
`NC(=O)c1sc2nc3c(cc2c1N)CN(Cc1ccccc1)CC3` was tested, and the “% Inhibition @ 10 uM” value was 2.34%.
In the case of `CCn1ncc(CNC(=O)CCCSc2nc(-c3ccco3)cc(C(F)(F)F)n2)c1C`, the “% Inhibition @ 10 uM” value is reported as -5.41%.
With `Cc1cccc(-c2nc3c4ccccc4nc(NCc4ccc5c(c4)OCO5)n3n2)c1` the “% Inhibition @ 10 uM” value was 0.981%.
`Cc1ccc(C)c(OCCCc2c(C)n[nH]c2C)c1` was tested, and the “% Inhibition @ 10 uM” value was -2.12%.
`COc1ccc(CN2CCN(c3ccc(Cl)cc3)CC2)cc1C` was tested, and the “% Inhibition @ 10 uM” value was 1.38%.
For `Cn1c(=O)c2c(nc(OCc3cccnc3)n2Cc2c(F)cccc2Cl)n(C)c1=O`, the “% Inhibition @ 10 uM” value was 3.35%.
For `Cc1ccc(-c2onc(C)c2C)cc1S(=O)(=O)NCc1ccc2c(c1)OCO2`, the “% Inhibition @ 10 uM” value was 0.977%.
`Cc1cc(O)ccc1NC(=O)Cn1cnc2c(=O)n(C)c(=O)n(C)c21` was tested, and the “% Inhibition @ 10 uM” value was -5.71%.
With `CCOC(=O)CCNC(=O)C(c1ccccc1)c1ccccc1` the “% Inhibition @ 10 uM” value was -7.35%.
`C=C(C)[C@@H]1CC=C(CN2CCN(C(=O)OCC)CC2)CC1` was tested, and the “% Inhibition @ 10 uM” value was -2.21%.
In the case of `Cc1ccc(/C=C2/C(=O)/C(=C/c3ccc(C)o3)C3CCC2N3C)o1`, the “% Inhibition @ 10 uM” value is reported as -21.6%.
`CSc1nc(O)c2c(n1)N=C1CC(C)(C)CC(O)=C1C2c1cccnc1` (stereo not drawn) was tested, and the “% Inhibition @ 10 uM” value was 0.457%.
In the case of `COc1ccc(CN2CCN(C)CC2)cc1Br`, the “% Inhibition @ 10 uM” value is reported as 2.96%.
`CCOc1ccc(NS(=O)(=O)c2ccc(NC(=O)NC3CCCCC3)cc2)cc1` was tested, and the “% Inhibition @ 10 uM” value was -9.02%.
In the case of `OCCNCc1cccc(OCc2ccccc2)c1`, the “% Inhibition @ 10 uM” value is reported as 3.93%.
`CC(SC(=S)N1CCCC1)C(=O)O` (stereo not drawn) was tested, and the “% Inhibition @ 10 uM” value was -1.93%.
For `CC1=C(C#N)C(=O)N(C)C(=O)/C1=C/c1ccc(-c2ccc(Br)cc2C(=O)O)o1`, the “% Inhibition @ 10 uM” value was -4.93%.
`COc1ccc(CCNC(=O)c2ccc(CS(=O)(=O)c3cccc(C(F)(F)F)c3)o2)cc1OC` was tested, and the “% Inhibition @ 10 uM” value was -1.28%.
`COc1ccc(S(=O)(=O)N2CCCC(C(=O)O)C2)cc1Cl` (stereo not drawn) was tested, and the “% Inhibition @ 10 uM” value was 0.401%.
For `CCOc1cc(/C=C2/NC(=O)NC2=O)ccc1OC`, the “% Inhibition @ 10 uM” value was -1.93%.
In the case of `CC1=C(c2ccc(C)cc2)S(=O)(=O)N=C1NCCCN1CCC(Cc2ccccc2)CC1`, the “% Inhibition @ 10 uM” value is reported as 5.42%.
With `CCNC(=O)CN(c1ccc(OC)c(OC)c1)S(=O)(=O)c1ccccc1` the “% Inhibition @ 10 uM” value was -2.14%.
With `OC1=C2CN(C3CCCCC3)CN=C2CC(c2ccccc2)C1` (stereo not drawn) the “% Inhibition @ 10 uM” value was 8.12%.
With `CC1(C)CC(=O)C(/C=N/CCN2CCN(CCc3ccccc3)CC2)=C(O)C1` the “% Inhibition @ 10 uM” value was 1.37%.
`Cc1ccc(NC(=O)CN2CCCCC2)cc1Cl` was tested, and the “% Inhibition @ 10 uM” value was -1.65%.
In the case of `COc1ccc(NC(=O)Cn2nc(C(F)(F)F)cc2C2CC2)cc1`, the “% Inhibition @ 10 uM” value is reported as -1.04%.

Reference: paper PMC6919601, “Identification of Plasmodium dipeptidyl aminopeptidase allosteric inhibitors by high throughput screening” (PLoS ONE, 2019)
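Note: 30 min substrate incubation versus DMSO and 10 µM JCP410 controls.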
